Here are results for 26 compounds from PubChem BioAssay AID1508624 (National Center for Advancing Translational Sciences (NCATS), 2021).

Hit rate of the full screen: of about 48,000 compounds, about 120 (0.25%) were called active. Another 4% or so got no clear call; they are omitted. Calls follow the shape of the dose curve; as a rule, active = well fitted activation curve with a large enough effect; inconclusive = small, poorly fitted or top-dose-only effect, or another doubt; inactive = no such curve, though single readings can be large or run the other way. Some of the results follow.

The nature of this test: Primary qHTS for Identification of Small Molecule Activators of Huntingtin-Antisense Promoter Activity. Also: nearly all actives have a fitted effect of over 55% in size. The note with it: HEK293 HTT-AS promoter firefly luciferase reporter (activity 0% = vehicle and -100% = no light), 24 h; series mostly up to 57.5 µM; activity change, positive = activation: at the top concentration. The essentials:
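HEK293 Fluc reporter, 2,500 cells/well, 24 h pre-culture; cpds up to 57.5 uM final, 24 h 37 degrees C; Dual-Glo, 10 min RT; normalized vehicle = 0%, zero RLU = -100%.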
With `CC(=O)c1ccc(NC(=O)Cn2c(-n3nc(C)cc3C)nc(C)cc2=O)cc1`, the “activity change, positive = activation” value is inactive: -12.7%.

Regarding `Cc1ccc2c(c1)cc1c(=O)n(CC(=O)NCc3ccco3)nc(C)n12`, the “activity change, positive = activation” value was inactive: -7.56%.

In the case of `Cc1cc(C(C#N)c2ccc(Cl)cc2)c(Cl)cc1NC(=O)c1cc(I)cc(I)c1O` (stereo unspecified), the “activity change, positive = activation” value was inactive: -93.2%.

As to `O=C(Cn1ncc2c3ccccc3n(Cc3ccc(Cl)cc3)c2c1=O)NCCCc1ccccc1`, the “activity change, positive = activation” value was inactive: 3.15%.

In the case of `COc1ccc(Nc2oc(-c3ccc(COc4ccc(OC)cc4)o3)nc2C#N)cc1`, the “activity change, positive = activation” value was inactive: -33.5%.

With `CC(C)c1ccc(Nc2cc(C(=O)NCCc3ccccc3)c3ccccc3n2)cc1`, the “activity change, positive = activation” value is inactive: -17.9%.

`CCC(C)NC(=O)C1CCN(C(=O)c2cc3sccc3n2Cc2ccc(Cl)cc2)CC1` (stereo unspecified): the “activity change, positive = activation” value is inactive: -53.9%.

For `CCc1ccccc1N1CC(c2nc3ccccc3n2CC(C)C)CC1=O` (stereo unspecified), the “activity change, positive = activation” value was inactive: -20%.

For the compound `Cc1ccc(C)c(S(=O)(=O)c2nnn3c2nc(N2CCCC2)c2sccc23)c1`, the “activity change, positive = activation” value was inactive: -19.7%.

Regarding `CCCCN(CC)CCCn1cnc2c([nH]c3ccc(Cl)cc32)c1=O`, the “activity change, positive = activation” value is inactive: -11.9%.

With `CCC(=O)Nc1ccccc1-c1nc2ccccc2n(C(CC)C(=O)Nc2cccc(C(C)=O)c2)c1=O` (stereo unspecified), the “activity change, positive = activation” value is inactive: -15.7%.

`CC(C)(C)C1CCc2nc(NC(=O)COc3ccc(F)cc3)sc2C1` (stereo unspecified): the “activity change, positive = activation” value was inactive: -35.1%.

As to `CC(=O)Nc1ccc(-n2cc3c(c2-c2ccc(C)cc2)c(=O)n(C)c(=O)n3C)cc1`, the “activity change, positive = activation” value is inactive: -5.3%.

`Cc1oc(-c2ccc(C(=O)Nc3ccc(F)cc3F)cc2)nc1COc1ccccc1`: the “activity change, positive = activation” value was inactive: -2.15%.

`COC(=O)c1c(NC(=O)CCCOc2ccccc2)sc2c1CCC(C)C2` (stereo unspecified): the “activity change, positive = activation” value was inactive: 2.67%.

Consider `Cc1ccc(Cl)cc1NC(=O)C1CCCN(S(=O)(=O)c2c(C)noc2/C=C/N(C)C)C1` (stereo unspecified), for which the “activity change, positive = activation” value is inactive: -28.8%.

As to `Fc1ccc(C2=NC(c3cccc(C(F)(F)F)c3)=Nc3ccccc3N2)cc1`, the “activity change, positive = activation” value is inactive: -24.3%.

`CCC(=O)N1CCc2cc(S(=O)(=O)CCC(=O)N(C)c3ccc(OC)cc3)ccc21`: the “activity change, positive = activation” value is inactive: 2.71%.

With `Cc1cc(Nc2cccc(Cl)c2)nc2ccc(NC(=O)c3ccc(F)cc3Cl)cc12`, the “activity change, positive = activation” value is inactive: -37.3%.

Take `O=C(Nc1ccccc1C(=O)OCc1cc(=O)n2ccsc2n1)c1cccc(F)c1`: the “activity change, positive = activation” value was inactive: -34.1%.

`Cc1ccc2nc(/C(C#N)=C/c3ccc(-c4ccc(F)cc4F)o3)[nH]c2c1`: the “activity change, positive = activation” value was inactive: -3.17%.

As to `CCOc1ccc(NC(=O)NCCCN2CCN(c3ccc(OC)cc3)CC2)cc1`, the “activity change, positive = activation” value was inactive: -16%.

For `O=C(c1ccc(CSc2nc3ccncc3n2Cc2ccccc2F)cc1)N1CCCCC1`, the “activity change, positive = activation” value was inactive: 14%.

Take `CCOc1ccccc1Nc1sc(C(=O)c2ccc(Cl)cc2)c(N)c1C#N`: the “activity change, positive = activation” value is inactive: -0.403%.

As for `COc1ccc2c(c1)C(=O)N(CCc1ccc(S(=O)(=O)NC(=O)NC3CCCCC3)cc1)C(=O)C2(C)C`, the “activity change, positive = activation” value is inactive: -10.4%.

With `O=C(NCc1ccc(F)cc1)c1cccc(N2CCCS2(=O)=O)c1`, the “activity change, positive = activation” value is inactive: -20%.
